In article PMC6705773:
Results are given in words; binding and its absence hold for the method and conditions named. For some of these results: In cells and extracts the contact can be indirect. Some entries that bind do so weakly or less than the wild type. For some of these results: Tags and fused reporters may be left off the sequences shown.

T1: FtsX (B. subtilis (endogenous in PY79)) (UniProt O34876)
T1 sequence: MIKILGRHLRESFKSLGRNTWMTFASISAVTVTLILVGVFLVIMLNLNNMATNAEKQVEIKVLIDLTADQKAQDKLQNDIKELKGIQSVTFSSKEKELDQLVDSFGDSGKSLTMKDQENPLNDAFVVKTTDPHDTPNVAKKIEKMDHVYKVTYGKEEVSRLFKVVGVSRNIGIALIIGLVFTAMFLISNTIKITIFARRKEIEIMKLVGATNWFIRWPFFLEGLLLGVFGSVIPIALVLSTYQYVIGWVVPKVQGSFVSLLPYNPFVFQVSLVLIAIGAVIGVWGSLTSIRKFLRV

T2: full-length SweD fused to the T18 or T25 domain of Bordetella adenylate cyclase (B. subtilis) (UniProt O32022)
T2 sequence: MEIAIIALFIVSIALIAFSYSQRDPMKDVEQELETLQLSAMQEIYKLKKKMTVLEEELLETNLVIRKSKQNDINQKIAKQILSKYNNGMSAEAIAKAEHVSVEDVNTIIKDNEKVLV

T3: FtsX fused to the T18 or T25 domain of Bordetella adenylate cyclase (B. subtilis) (UniProt O34876)
T3 sequence: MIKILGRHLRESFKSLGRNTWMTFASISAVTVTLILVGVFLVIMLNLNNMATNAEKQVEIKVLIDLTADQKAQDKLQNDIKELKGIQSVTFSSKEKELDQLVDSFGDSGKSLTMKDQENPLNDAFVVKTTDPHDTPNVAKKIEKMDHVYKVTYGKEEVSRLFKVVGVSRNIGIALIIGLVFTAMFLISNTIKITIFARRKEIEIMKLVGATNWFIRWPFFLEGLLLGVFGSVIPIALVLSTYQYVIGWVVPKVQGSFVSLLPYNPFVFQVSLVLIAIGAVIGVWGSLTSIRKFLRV


What was measured:
[1] = biological target: T1, FtsX (B. subtilis (endogenous in PY79)); test: co-IP; anti-FtsX antiserum and Protein A Sepharose on 0.5% digitonin-solubilized membrane fractions of exponentially growing B. subtilis wild type (PY79), ΔftsX mutant as control; 4°C; Buffer S (20 mM Hepes pH 8, 200 mM NaCl, 1 mM DTT, 20% glycerol) + 0.5% digitonin; immunoblot
[2] = biological target: T2, full-length SweD fused to the T18 or T25 domain of Bordetella adenylate cyclase (B. subtilis); test: two-hybrid; bacterial adenylate cyclase two-hybrid (BACTH); T18 and T25 fusions co-transformed into E. coli BTH101; spotted on LB agar with IPTG (0.25 mM) and X-Gal, 30°C, 16 hours
[3] = biological target: T3, FtsX fused to the T18 or T25 domain of Bordetella adenylate cyclase (B. subtilis); test: as above

binding [1]	binding [2]	binding [3]	Binder
binds			SweD (protein, UniProt O32022 1-117) MEIAIIALFIVSIALIAFSYSQRDPMKDVEQELETLQLSAMQEIYKLKKKMTVLEEELLETNLVIRKSKQNDINQKIAKQILSKYNNGMSAEAIAKAEHVSVEDVNTIIKDNEKVLV
	binds	binds	full-length SweD fused to the T18 or T25 domain of Bordetella adenylate cyclase (protein, UniProt O32022 1-117) MEIAIIALFIVSIALIAFSYSQRDPMKDVEQELETLQLSAMQEIYKLKKKMTVLEEELLETNLVIRKSKQNDINQKIAKQILSKYNNGMSAEAIAKAEHVSVEDVNTIIKDNEKVLV
	no binding		SweC fused to the T18 or T25 domain of Bordetella adenylate cyclase (protein, UniProt O32023 1-154) MTKRGIQAFAGGIILATAVLAAVFYLTDEDQAAAVKDNKTVTEQDVNNYLDSKKLVSVNRDEYQKLLDSKEKSLNNDSGSDTKSDKVKTYKLTIKDGMSTADVSAILEKEGIISSAQDFNDYVIDAGYHKEIRAGEFKVKSDMSFKKIVKTLTR
	no binding		Mbl, bacterial two-hybrid fusion (protein, UniProt P39751 1-333) MFARDIGIDLGTANVLIHVKGKGIVLNEPSVVALDKNSGKVLAVGEEARRMVGRTPGNIVAIRPLKDGVIADFEVTEAMLKHFINKLNVKGLFSKPRMLICCPTNITSVEQKAIKEAAEKSGGKHVYLEEEPKVAAIGAGMEIFQPSGNMVVDIGGGTTDIAVISMGDIVTSSSIKMAGDKFDMEILNYIKREYKLLIGERTAEDIKIKVATVFPDARHEEISIRGRDMVSGLPRTITVNSKEVEEALRESVAVIVQAAKQVLERTPPELSADIIDRGVIITGGGALLNGLDQLLAEELKVPVLVAENPMDCVAIGTGVMLDNMDKLPKRKLS
no binding			WalI (YycI) (protein, UniProt Q45612 1-280) MEWNKTKSIFIVAFLILDIFLGYQFFQKWQATGKEYEVIKNDVEHDMKADHITYEGLNKEATEGYRITANQKSFSKEEIEALKDQKPLMDMPSDDHKVTSLKMKFANPIALSKKDIEDDAQALVSSKIQDGEKYKLWKVDKSKKEIIFFQTYEGHYIYQKTDNPSNMIGQVVLHLNGKNEVVSYDQTTLETFKQIQKESLITEMDAVELLYYQNQLKEYSTVKSCKFGYVAQYPLTSTQVLAPVWRITVEYEKKVNGEKKTVQEYFTVNALESTILDTDQ
		binds	FtsE fused to the T18 or T25 domain of Bordetella adenylate cyclase (protein, UniProt O34814 1-228) MIEMKEVYKAYPNGVKALNGISVTIHPGEFVYVVGPSGAGKSTFIKMIYREEKPTKGQILINHKDLATIKEKEIPFVRRKIGVVFQDFKLLPKLTVFENVAFALEVIGEQPSVIKKRVLEVLDLVQLKHKARQFPDQLSGGEQQRVSIARSIVNNPDVVIADEPTGNLDPDTSWEVMKTLEEINNRGTTVVMATHNKEIVNTMKKRVIAIEDGIIVRDESRGEYGSYD
